# The other results are listed elsewhere or left out.
# System: PfSIP2 AP2 domain 1 (GST-tagged)
# Test: gcPBM binding intensity (ln(normalized median fluorescence intensity)); higher = stronger DNA binding
# Summary of the method: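 Probes on an Agilent 4 × 180k array were primer-extended, double-stranded and 36 bp long, taken from intergenic genomic regions, with negative controls added. GST-tagged P. falciparum DNA-binding domains from E. coli, about 25 μg on average, were applied to the array for 1 h in 1× PBS containing 1% milk, 0.2 mg/ml BSA, 0.5% salmon testes DNA and 0.03% Triton X-100. Binding intensity, obtained after Alexa488 anti-GST antibody detection and a 488 nm scan, is the highest Masliner-normalised natural-log median intensity across replicate spots of either probe orientation.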
row,Sequence,gcPBM binding intensity (ln)
1,AATATGGAATGAAATAACAATCGGGAGTATATTACC [CACACA_negctrl_site93],7.22
2,TATATATATGTTCTTACACACACGAATATATATATG [CACACA_site3304],7.41
3,CTTTCTCTCAAAATGACATGCAATTTGTTTCTTTTT [TGCATGCA_site169],6.81
4,ATGCGTTTAGCAAAAAGTACATATATATATAATATT [XGTACX_site1928],6.93
5,ATATATATATATATTTGTACTTAATTGATTTTACTT [XGTACX_site2663],9.27
6,ATTATTGATTTATAAACACACACTCGAAGATGTTTA [CACACA_site8294],6.91
7,TTGAAATACTTTATTTGTACATATAGCAAAGTGTAT [XGTACX_site8782],7.08
8,ATTTTTTCTAGACATGCATGTGAAATTTACTTTTTT [TGCATGCA_site305],6.9
9,ATTTTTTTTTAATGCAATATATTTTGAAAATTTTAT [CACACA_negctrl_site753],7
10,TTTTTTTTTTTTTTTACACACTTTATTCAAACAACT [CACACA_site4104],7.01
11,AAAAAAATATATAATAGTACATATATAGGAATATAT [XGTACX_site4591],6.94
12,TGAATACAGATATTCACACAAATAGTTTTGATATAT [CACACA_site5527],6.69
13,TAATATCTTGAGTCATCACACATTGATTAATGAATC [CACACA_site5735],6.73
14,AGTGGAAATTTTATTTGTACATAAATATTTACATAC [XGTACX_site633],7.04
15,CTTTTTTTTTTTTTTGCACACACATATATAAATATA [CACACA_site3950],7.63
16,ATATTTTTTATAAAATGTACTTATTATTAGAATATA [XGTACX_site2460],6.89
17,ACATATAAGTTATATACACACAATAATATGTAAATA [CACACA_site6766],7.07
18,TACAAAATATGGTAATAAAGTAGTTACATGAATTGG [XGTACX_negctrl_site522],6.91
19,AAATAGTCTTCTCTTGCATGTAACAAATATATATAT [TGCATGCA_site428],8.35

row,Sequence,gcPBM binding intensity (ln)
1,TAGTAAGAATTACTGTGTACTAAAATATTAAAAAGT [XGTACX_site2578],7.12
2,AATAAAAACAAACAAAAAAACAAATAAATAAATAAA [CACACA_negctrl_site483],6.75
3,GTTATAGAAGCATTCACACACACACGGACATACACA [CACACA_site6801],7.23
4,TTTTTTTATAAAAATGAACACACACCGATATATATA [CACACA_site9161],7.57
5,AATATATACATATGTATGCACTTTTTAATTATTTTT,7.76
6,TATTATAATATATTTGTGCACATAATACCTCCGCTA [GTGCAC_site9570],9.16
7,GTTATAGAAGCATTCACACACACACCGACATACACA [CACACA_site4914],7.27
8,ATAAATTATATTCAAGTGCATGTAACTTATTATTAT,7.5
9,AATAATTAAATATATTTATAACAGGAAAATATTTAT [XGTACX_negctrl_site175],7.05
10,ATATATATATAAATATAAATATATATATATATATAT [CACACA_negctrl_site1685],9.35
11,AAAAAAATCACATAATATACTTTATTTTATTTTGTA [GTGCAC_negctrl_site562],6.72
12,ACAAAGAACTATAATACACACAAGAATATATTGGAT [CACACA_site7771],7.06
13,TTATAAGATTTATGTACACACATATACACCCCTCTA [CACACA_site4562],6.97
14,TATATATAGAAACACACACACACATATATATATATT [CACACA_site2539],7.22
15,AATATATTGCACCATTGGACCTGAATAATTCTTCCA [CACACA_negctrl_site1071],10.6
16,GTAAGAAACGGACACACACACATATATATATATATA [CACACA_site4593],9.14
17,TAAATAATCATAGTTCTACACACCTATATTGCAAAA [CACACA_site8190],6.87
18,AAAAAAAAAAATTCCAGTACACACAATAATACTAAA [XGTACX_site5930],6.88
19,ATATATATAATATGATGTACTATTTTGATAAAAAAT [XGTACX_site3975],7.62

row,Sequence,gcPBM binding intensity (ln)
1,TGTGGCCCTGCGAGGTGGTCATCATGAATACGAAAA [XGTACX_site1526],6.67
2,TCAAAAATTTATATAGTGCAATATATATATAATGTA,7.9
3,TTAAAAAATATATGCGTGCACTAATATTTCATATGC,9.93
4,TGAATTAACAAATAGACACACATATATATATATATA [CACACA_site3195],9.38
5,ACCATTTGTACTTACGCACACATAAAATATATATAT [CACACA_site1545],8.49
6,TACTATTTTTATAATACACACATATATTTGTGATAT [CACACA_site1775],7.01
7,TCATACATTTTCCTTGCACACATTTATAATTAATGT [CACACA_site614],7.49
8,TTGTAATATATAAAAGTGCATATATGGTTCCATATA [GTGCAC_site9544],7.89
9,TAATTTATTGTACGTGCATGCTATTTTTTATTTTTA [TGCATGCA_site1059],7.08
10,ATATGTGAATAAAAATGTACGTGTTCTTTTTTTTTT [XGTACX_site320],6.88
11,AACAAAAAAACAAACACACACACACCCATATATATA [CACACA_site3652],7.79
12,TACCTATAAAAGTACACACACACACGGATATAAATA [CACACA_site6569],7.22
13,ACTATAAATATATACACATGCGCACACACAAGTGGG [TGCATGCA_site432],7.45
14,ATTGATCTTTATTGTTGTACATTAAACGTTAATTTT [XGTACX_site1788],7.13
15,TATTATATAATTTTAACACACAAGAATATAAACTTT [CACACA_site1363],6.83
16,TAACAAAATGTAAATAAACACACATATATATATATA [CACACA_site8352],9.42
17,AACATTCTATGTTGCACACAAAGAGAAAAATTTATT [CACACA_site3995],6.99
18,TAATTTAAATGATGTAGTACATATAAATATATCTAA [XGTACX_site262],6.8
19,TGAAGGAATACAGCTCGTACATGTGTAAAGAGATAA [XGTACX_site500],7.09
